Measurements from the RNAGym collection of RNA variant scans (doi:10.1093/nar/gkz1192).
The source gives no read counts; variants with many changes may rest on few reads.

B1: CPEB3 Ribozyme (parent)
chain: UAACAGGGGGCCACAGCAGAAGCGUUCACGUCGCAGCCCCUGUCAGAUUCUGGUGAAUCUGCGAAUUCUGCUGUAUAUCUC

Variants of: B1
Experiment: self-cleavage, relative activity (ratio to wild type); higher = more cleavage; in vitro, sequencing
Procedure, shortened: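 Barcoded CPEB3 ribozyme mutants, produced by rounds of error-prone PCR, self-cleaved while being transcribed with T7 RNA polymerase for 5 hours at 37°C and during a subsequent 15 min DNase I step before EDTA was added. Sequencing of template-switched cDNA on Illumina gave cleaved and total reads, and DNA sequencing assigned barcodes to variants. Each variant's relative activity is its cleaved/total read fraction divided by the unmutated ribozyme's fraction, averaged across three batches. A variant needed a minimum of 5 reads.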

Row | Variant | self-cleavage
1 | A21C U48C U54C | 0.11
2 | A21C U51A A57G | 0.09
3 | A21C U66C U69C | 0.08
4 | A21G A28C A57G | 0.27
5 | A21G A28C C32G | 0.16
6 | A21G A28C U49C U60A A75G U78C | 0.05
7 | A21G A28G A35U U48G | 0.25
8 | A21G A28G A45G A56G | 0.07
9 | A21G A28G A45G U69A U80A | 0.2
10 | A21G A28G A45U U74C | 0.08
11 | A21G A28G A56G C59A U60C A64U U78A | 0.01
12 | A21G A28G A57G | 0.15
13 | A21G A28G C29G | 0.08
14 | A21G A28G C38G A45G U51A U78C | 0.05
15 | A21G A28G C59A U72A | 0.05
16 | A21G A28G G33U C40U U49C U60A | 0.05
17 | A21G A28G G52C A56G | 0.15
18 | A21G A28G U31C U51A U60C A65C A75G | 0.08
19 | A21G A28G U41A | 0.24
20 | A21G A28G U41A A64G | 0.14
21 | A21G A28G U43A | 0.41
22 | A21G A28G U43G U78C | 0.25
23 | A21G A28G U49A U51A A57G A64G U72C | 0.02
24 | A21G A28G U49C C71A | 0.1

Row | Variant | self-cleavage
25 | A21G A28G U49C U74A | 0.07
26 | A21G A28G U49G C62A | 0.08
27 | A21G A28G U54C A64U C81U | 0.08
28 | A21G A28G U60A C71U | 0.06
29 | A21G A28G U66A | 0.12
30 | A21G A28G U69A U80C | 0.05
31 | A21G A28G U72A | 0.15
32 | A21G A28U A35C U49A U67C | 0.14
33 | A21G A28U A35U U51A U78C | 0.06
34 | A21G A28U A47G A56G A57G U78C | 0.17
35 | A21G A28U A57G C79G | 0.33
36 | A21G A28U C29A A35U U41A A64U | 0.08
37 | A21G A28U G46U A57G A75U | 0.22
38 | A21G A28U U31A A57G | 0.16
39 | A21G A28U U31A U66C U80C | 0.43
40 | A21G A28U U41A A64G | 0.1
41 | A21G A28U U41C A47G | 0.42
42 | A21G A28U U41G A56U A65G | 0
43 | A21G A28U U51C A56G C62U | 0.1
44 | A21G A28U U51C U66C A77G | 0.72
45 | A21G A35G A47G A56U U69C | 0.3
46 | A21G A35G A64G A65G | 0.23
47 | A21G A35G A65U U67C U72A U74C U80A | 0.14
48 | A21G A35G C50U | 1.2

Row | Variant | self-cleavage
49 | A21G A35G C59U U66A U69G | 0.21
50 | A21G A35G G36U U49C G73U | 0.05
51 | A21G A35G G42C | 0.16
52 | A21G A35G U41A | 0.21
53 | A21G A35G U41A U54A | 0.37
54 | A21G A35G U43C A45U A56G U80C | 0.49
55 | A21G A35G U43C U51A | 0.56
56 | A21G A35G U51A A75G | 1.08
57 | A21G A35G U60A U76C | 1.1
58 | A21G A35G U67C | 0.43
59 | A21G A35G U72C | 1.2
60 | A21G A35U A47G U60C A77G | 0.02
61 | A21G A35U C37U U41C U54A U80C | 0.21
62 | A21G A35U U41A A45G A56G | 0.18
63 | A21G A35U U43G G52A C62U A64G U67A | 0.09
64 | A21G A35U U49C A56U A77U | 0.08
65 | A21G A35U U54C | 0.14
66 | A21G A35U U58G U66C | 0.12
67 | A21G A35U U60A | 0.2
68 | A21G A35U U74C A77U | 0.35
69 | A21G A45C G46A | 0.18
70 | A21G A45G A47G U49C U69A | 0.23
71 | A21G A45G A56U | 0.15
72 | A21G A45G A64U | 0.28

Row | Variant | self-cleavage
73 | A21G A45G A64U U67A U80A | 0.11
74 | A21G A45G C50A U78C | 0.12
75 | A21G A45G C68A | 0.44
76 | A21G A45G U49C U60C C62U U74C | 0.14
77 | A21G A45G U54C | 0.4
78 | A21G A45G U58C | 0.18
79 | A21G A45G U60A | 0.2
80 | A21G A45G U60A U66C G73C A75G | 1.07
81 | A21G A45G U66C | 0.91
82 | A21G A45G U66C U69A U74C U78A | 0.19
83 | A21G A45G U74A A75G | 0.43
84 | A21G A45U A47G U72C | 0.16
85 | A21G A47C U54C C81A | 0.25
86 | A21G A47G A56U U66A U69C | 0.04
87 | A21G A47G G63U U67A | 0.15
88 | A21G A47G U49C U67C U69C U76G | 0
89 | A21G A47G U49G A75U | 0.1
90 | A21G A47G U66G | 0.34
91 | A21G A47U A56G A64G | 0.33
92 | A21G A47U U74A | 0.44
93 | A21G A56G C59U | 0.21
94 | A21G A56G C62U U72A U78C | 0.14
95 | A21G A56G C62U U80A | 0
96 | A21G A56U A57G U60C | 0.19

Row | Variant | self-cleavage
97 | A21G A56U U60C | 0.18
98 | A21G A56U U69A U72A | 0.11
99 | A21G A57G A64G U66C U67A | 0.25
100 | A21G A57G U60A U72C | 0.11
101 | A21G A57G U67C | 0.14
102 | A21G A57G U69A U78C | 0.23
103 | A21G A57G U69C | 0.31
104 | A21G A57U U58C | 0.33
105 | A21G A57U U60C | 0.12
106 | A21G A57U U69C | 0.17
107 | A21G A57U U72C U80C | 0.25
108 | A21G A57U U74C | 0.53
109 | A21G A64G U72C | 0.19
110 | A21G A64G U74C A77U | 0.66
111 | A21G A64G U76C | 0.43
112 | A21G A64U U67A | 0.08
113 | A21G A64U U72C | 0.21
114 | A21G A65G G70A A75U | 0.05
115 | A21G A65G G70U | 0.16
116 | A21G A65G U78C | 0.35
117 | A21G A75G A77U | 0.33
118 | A21G A75G U80C | 0.35
119 | A21G C23A U41C A56G | 0.23
120 | A21G C23A U60A U69C | 0.29

Row | Variant | self-cleavage
121 | A21G C23G A45G | 0.19
122 | A21G C23G C34U U43G C44G U54C U66C | 0.05
123 | A21G C23G U41C A64G | 0.19
124 | A21G C23U A28U A35G U43C U78C | 0.03
125 | A21G C23U C62G A65G A77G U80C | 0.09
126 | A21G C23U G30A A65G | 0.14
127 | A21G C23U U25C C59U | 0.47
128 | A21G C23U U31A A47U U60C A77U | 0.04
129 | A21G C23U U31G A47G A65G C68G U80C | 0.05
130 | A21G C23U U48A U58C | 0.22
131 | A21G C27A A45G | 0.17
132 | A21G C27A U41A U60A | 0.16
133 | A21G C27G U49C G63A U76G | 0.05
134 | A21G C29A A35U U60C A77G | 0.05
135 | A21G C29A U51C | 0.25
136 | A21G C29G U41A | 0.18
137 | A21G C29U C40U A47G U54G A77U U80A | 0.04
138 | A21G C32A A47G A75U | 0.08
139 | A21G C32A A57G A65G | 0.17
140 | A21G C32G A35U | 0.4
141 | A21G C32G U49C U80A | 0.06
142 | A21G C32U A65G U67C | 0.1
143 | A21G C32U C40G A77C | 0.2
144 | A21G C32U U72A | 0.17

Row | Variant | self-cleavage
145 | A21G C34A A45U U49C U58A | 0.05
146 | A21G C34A U67A | 0.15
147 | A21G C34G A45U | 0.05
148 | A21G C34U U69A U74C U78A | 0.11
149 | A21G C37G C40A U49A U60C A75U | 0.22
150 | A21G C38U U41A A47G U51A U78C | 0.06
151 | A21G C38U U49C A64C | 0.07
152 | A21G C39U A57U | 0.24
153 | A21G C39U A65G A77G U78C | 0.03
154 | A21G C39U U51C C81U | 0.38
155 | A21G C40A G63U | 0.37
156 | A21G C40A U80C | 0.1
157 | A21G C40U A47G U78C | 0.24
158 | A21G C40U A56G U66A | 0.09
159 | A21G C40U U51A | 0.21
160 | A21G C40U U72A U80C | 0.75
161 | A21G C44G A75G | 0.04
162 | A21G C44U A45G U78C | 0.16
163 | A21G C50U A64U | 0.22
164 | A21G C59G A64U U78C | 0.1
165 | A21G C59U U69A | 0.13
166 | A21G C62A U78C | 0.17
167 | A21G C62U A65G U72C | 0.18
